Reference: PMC3879318
Results are given in words; binding and its absence hold for the method and conditions named. For part of these data: Binding seen in cells or lysates may run through a third protein. Some entries that bind do so weakly or less than the wild type. For part of these data: Tags and fused reporters may be left off the sequences shown.

Sequences of proteins named here, by UniProt entry; tags and fusion partners are left off.
UniProt P02340: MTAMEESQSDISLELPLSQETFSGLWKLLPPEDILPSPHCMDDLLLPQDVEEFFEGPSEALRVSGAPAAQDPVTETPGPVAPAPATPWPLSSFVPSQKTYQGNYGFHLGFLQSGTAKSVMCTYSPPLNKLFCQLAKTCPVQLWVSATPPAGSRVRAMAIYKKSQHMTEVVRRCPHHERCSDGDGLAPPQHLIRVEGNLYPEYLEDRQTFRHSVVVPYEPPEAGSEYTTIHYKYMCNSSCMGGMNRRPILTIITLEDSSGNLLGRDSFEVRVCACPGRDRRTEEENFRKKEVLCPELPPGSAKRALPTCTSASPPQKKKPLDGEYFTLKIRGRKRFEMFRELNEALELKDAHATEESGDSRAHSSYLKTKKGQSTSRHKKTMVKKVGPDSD
UniProt P17918: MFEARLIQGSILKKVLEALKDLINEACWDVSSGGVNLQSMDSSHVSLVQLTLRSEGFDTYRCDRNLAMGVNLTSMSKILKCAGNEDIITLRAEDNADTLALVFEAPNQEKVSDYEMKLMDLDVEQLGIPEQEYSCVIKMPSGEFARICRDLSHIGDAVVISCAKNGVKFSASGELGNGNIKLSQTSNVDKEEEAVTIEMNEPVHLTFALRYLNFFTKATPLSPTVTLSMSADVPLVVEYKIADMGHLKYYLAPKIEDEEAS

T1: necdin (UniProt P25233)
T1 sequence: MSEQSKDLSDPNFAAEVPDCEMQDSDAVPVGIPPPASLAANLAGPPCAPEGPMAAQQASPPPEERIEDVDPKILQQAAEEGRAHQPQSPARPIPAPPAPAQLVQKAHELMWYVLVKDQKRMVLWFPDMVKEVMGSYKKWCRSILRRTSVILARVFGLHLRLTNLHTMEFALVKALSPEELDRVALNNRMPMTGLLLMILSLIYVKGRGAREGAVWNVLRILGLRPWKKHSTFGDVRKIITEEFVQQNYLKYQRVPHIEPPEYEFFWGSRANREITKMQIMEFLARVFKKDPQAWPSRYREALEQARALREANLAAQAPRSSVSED

T2: necdin (endogenous, primary NPCs) (mouse (endogenous in primary NPCs)) (UniProt P25233)
T2 sequence: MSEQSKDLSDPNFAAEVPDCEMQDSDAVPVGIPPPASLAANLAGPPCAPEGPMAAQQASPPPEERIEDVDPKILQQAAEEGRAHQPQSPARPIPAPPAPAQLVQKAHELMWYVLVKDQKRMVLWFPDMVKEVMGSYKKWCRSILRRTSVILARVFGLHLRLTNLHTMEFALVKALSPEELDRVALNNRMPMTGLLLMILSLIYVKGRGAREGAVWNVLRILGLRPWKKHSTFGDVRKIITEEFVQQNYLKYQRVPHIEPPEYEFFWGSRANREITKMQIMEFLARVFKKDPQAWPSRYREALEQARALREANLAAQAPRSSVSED

T3: 6×Myc-Bmi1 full-length (mouse) (UniProt P25916)
T3 sequence: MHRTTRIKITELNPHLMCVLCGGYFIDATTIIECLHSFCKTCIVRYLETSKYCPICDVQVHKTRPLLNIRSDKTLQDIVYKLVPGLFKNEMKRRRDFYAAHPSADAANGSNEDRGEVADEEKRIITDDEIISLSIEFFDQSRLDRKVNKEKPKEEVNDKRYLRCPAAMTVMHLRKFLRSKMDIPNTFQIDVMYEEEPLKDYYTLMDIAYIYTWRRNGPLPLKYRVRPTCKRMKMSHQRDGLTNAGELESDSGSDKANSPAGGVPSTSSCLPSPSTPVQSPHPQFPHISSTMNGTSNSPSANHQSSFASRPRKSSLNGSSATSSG

T4: GST-Bmi1 full-length (mouse) (UniProt P25916)
T4 sequence: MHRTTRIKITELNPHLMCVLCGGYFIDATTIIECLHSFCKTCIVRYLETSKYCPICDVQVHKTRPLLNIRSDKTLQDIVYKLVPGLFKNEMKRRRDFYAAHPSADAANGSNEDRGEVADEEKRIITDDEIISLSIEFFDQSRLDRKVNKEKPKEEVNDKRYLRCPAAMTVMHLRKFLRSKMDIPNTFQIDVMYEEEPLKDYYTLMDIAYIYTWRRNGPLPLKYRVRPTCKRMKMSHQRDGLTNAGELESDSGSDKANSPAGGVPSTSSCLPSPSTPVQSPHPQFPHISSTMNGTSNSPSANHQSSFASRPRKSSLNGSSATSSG


How the values were obtained:
[1] = target: T1, necdin; test: co-IP; HEK293A cells co-transfected with necdin and Myc-tagged proteins, harvested 24 hrs after transfection; cell extracts (200 µg) incubated at 4°C for 2 hrs with anti-necdin (NC243) and anti-Myc (9E10) antibodies in 10 mM Tris-HCl pH 8.0, 150 mM NaCl, 1 mM EDTA, 1% NP-40, 10% glycerol; protein A-Sepharose; Western blotting
[2] = target: T2, necdin (endogenous, primary NPCs) (mouse (endogenous in primary NPCs)); test: co-IP; endogenous proteins; lysates of primary NPCs (500 µg protein) from E14.5 wild-type and necdin-null mice incubated with rabbit anti-necdin IgG or preimmune IgG; Dynabeads protein A; Western blotting
[3] = target: T3, 6×Myc-Bmi1 full-length (mouse); test: co-IP; HEK293A cells co-transfected with necdin and Myc-tagged proteins, harvested 24 hrs after transfection; cell extracts (200 µg) incubated at 4°C for 2 hrs with anti-necdin (NC243) and anti-Myc (9E10) antibodies in 10 mM Tris-HCl pH 8.0, 150 mM NaCl, 1 mM EDTA, 1% NP-40, 10% glycerol; protein A-Sepharose; Western blotting
[4] = target: T4, GST-Bmi1 full-length (mouse); test: pull-down; GST-Bmi1 fusions immobilized on glutathione Sepharose 4B incubated with His-tagged necdin (200 ng) at 4°C for 2 hrs in 1 ml of 50 mM Tris buffer pH 8.0, 300 mM KCl, 2 mM 2-mercaptoethanol; bound His-necdin detected by Western blotting; both purified

Molecule	binding [1]	binding [2]	also measured
6×Myc-Bmi1 full-length (protein, UniProt P25916 1-324) MHRTTRIKITELNPHLMCVLCGGYFIDATTIIECLHSFCKTCIVRYLETSKYCPICDVQVHKTRPLLNIRSDKTLQDIVYKLVPGLFKNEMKRRRDFYAAHPSADAANGSNEDRGEVADEEKRIITDDEIISLSIEFFDQSRLDRKVNKEKPKEEVNDKRYLRCPAAMTVMHLRKFLRSKMDIPNTFQIDVMYEEEPLKDYYTLMDIAYIYTWRRNGPLPLKYRVRPTCKRMKMSHQRDGLTNAGELESDSGSDKANSPAGGVPSTSSCLPSPSTPVQSPHPQFPHISSTMNGTSNSPSANHQSSFASRPRKSSLNGSSATSSG	binds		
necdin (protein, UniProt P25233 1-325) MSEQSKDLSDPNFAAEVPDCEMQDSDAVPVGIPPPASLAANLAGPPCAPEGPMAAQQASPPPEERIEDVDPKILQQAAEEGRAHQPQSPARPIPAPPAPAQLVQKAHELMWYVLVKDQKRMVLWFPDMVKEVMGSYKKWCRSILRRTSVILARVFGLHLRLTNLHTMEFALVKALSPEELDRVALNNRMPMTGLLLMILSLIYVKGRGAREGAVWNVLRILGLRPWKKHSTFGDVRKIITEEFVQQNYLKYQRVPHIEPPEYEFFWGSRANREITKMQIMEFLARVFKKDPQAWPSRYREALEQARALREANLAAQAPRSSVSED			binding [3]: binds
His-tagged necdin (protein, UniProt P25233 1-325) MSEQSKDLSDPNFAAEVPDCEMQDSDAVPVGIPPPASLAANLAGPPCAPEGPMAAQQASPPPEERIEDVDPKILQQAAEEGRAHQPQSPARPIPAPPAPAQLVQKAHELMWYVLVKDQKRMVLWFPDMVKEVMGSYKKWCRSILRRTSVILARVFGLHLRLTNLHTMEFALVKALSPEELDRVALNNRMPMTGLLLMILSLIYVKGRGAREGAVWNVLRILGLRPWKKHSTFGDVRKIITEEFVQQNYLKYQRVPHIEPPEYEFFWGSRANREITKMQIMEFLARVFKKDPQAWPSRYREALEQARALREANLAAQAPRSSVSED			binding [4]: binds
Bmi1 (endogenous, primary NPCs) (protein, UniProt P25916 1-324) MHRTTRIKITELNPHLMCVLCGGYFIDATTIIECLHSFCKTCIVRYLETSKYCPICDVQVHKTRPLLNIRSDKTLQDIVYKLVPGLFKNEMKRRRDFYAAHPSADAANGSNEDRGEVADEEKRIITDDEIISLSIEFFDQSRLDRKVNKEKPKEEVNDKRYLRCPAAMTVMHLRKFLRSKMDIPNTFQIDVMYEEEPLKDYYTLMDIAYIYTWRRNGPLPLKYRVRPTCKRMKMSHQRDGLTNAGELESDSGSDKANSPAGGVPSTSSCLPSPSTPVQSPHPQFPHISSTMNGTSNSPSANHQSSFASRPRKSSLNGSSATSSG		binds	

The next lines start with results.

binding [1]	binding [2]	Molecule	also measured
binds		p53 (positive control) (from UniProt P02340 1-390)	
	no binding	proliferating cell nuclear antigen (PCNA) (from UniProt P17918 1-261)	
